The other results are listed elsewhere or left out.
Experiments:
[1] = biological target: Neu5Gc(a2-8)Neu5Gc(a2-6)Gal(b1-4)GlcNAc; test: glycan array binding signal (z-score within array); higher = stronger binding; conditions: glycan notation: IUPAC condensed, linker removed
Summary of the method: (§1)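 Glycan array data were curated from 3228 arrays in the Consortium for Functional Glycomics database and kept only where the protein sequence was available. Glycan names were converted to IUPAC-condensed notation, and columns mapping to the same glycan were averaged. The binding signal is a within-array Z-score, averaged across arrays of the same protein sequence at different concentrations or buffers and across linkers. Negative Z-scores can be read as non-binding.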

[2] = biological target: Neu5Gc(b2-6)Gal(b1-4)GlcNAc; test: as above; conditions: glycan notation: IUPAC condensed, linker removed
Summary of the method: as §1

B1: PLU (Photorhabdus luminiscence) (protein)
chain: HHHHHHENLYFQSSIVFASIDPRSNPLQTSSQNYVDIPGLKLDVSKYSNSPCLTALITLNIPTPYASGNNFPGGNFAIVTDQGEQLAYGGFTYSSKIPENSGRMPFTLVARYSLASNVSTIKAQWSNIRGSTVHIDSYASISAVIQCNQLV
glycan array binding signal (z-score) [1]: -0.367 | glycan array binding signal (z-score) [2]: -0.227
